Reference: the antibiotic and cytotoxicity screens of Wong et al. (2023)
The other results are listed elsewhere or left out.

How the values were obtained:
[1] = system: HSkMC (human skeletal muscle cells); assay: cytotoxicity call (relative viability < 0.9); conditions: 10 µM
[2] = system: HepG2; assay: cytotoxicity call (relative viability < 0.9); conditions: 10 µM
[3] = system: S. aureus RN4220; assay: growth inhibition call (relative growth <= 0.2); conditions: 50 µM

Compound | cytotoxicity call [1] | cytotoxicity call [2] | growth inhibition call [3]
C[C@H]1CN([C@@H](C)CO)C(=O)c2cc(NC(=O)CCN3CCOCC3)ccc2O[C@@H]1CN(C)S(=O)(=O)c1cn(C)cn1 | inactive | inactive | inactive
COc1ccc(-c2cnc3c(c2)C(=O)N([C@H](C)CO)C[C@H](C)[C@H](CN(C)C(=O)Cc2cccnc2)O3)cc1 | inactive | inactive | inactive
Oc1cccc(c1)/C/1=C/2\CC/C(=C(\c3cccc(c3)O)c3ccc([nH]3)/C(=C\3/C=CC(=N3)/C(=C\3/C=CC1=N3)c1cccc(c1)O)c1cccc(c1)O)N2 | active | inactive | inactive
C/C=C/c1ccc2c(c1)O[C@H](CN(C)C(=O)c1ccc3c(c1)OCO3)[C@@H](C)CN([C@H](C)CO)S2(=O)=O | inactive | inactive | inactive
COc1cccc(NC(=O)N[C@H]2C=C[C@@H](CC(=O)N3CCN(C)CC3)O[C@H]2CO)c1 | inactive | inactive | inactive
C[C@@H]1CN([C@H](C)CO)C(=O)c2cc(NC(=O)Nc3ccccc3)ccc2O[C@@H](C)CCCCO[C@H]1CN(C)C(=O)NC1CCCCC1 | inactive | active | inactive
Nc1nnc(-c2ccno2)o1 | inactive | inactive | inactive
O=C(C[C@@H]1C=C[C@@H](NC(=O)CN2CCOCC2)[C@@H](CO)O1)NCCc1ccncc1 | inactive | inactive | inactive
O=c1cc[nH]c(=O)[nH]1 | inactive | inactive | inactive
COc1ccccc1/C=C/C=C1/C(=O)N(c2cc(C)cc(C)c2)[C@@H](c2cccc([N+](=O)[O-])c2)S1(=O)=O | inactive | inactive | inactive
Nn1c(-c2ccncc2)nncc1=O | inactive | inactive | inactive
CN(C)CC(=O)N[C@H]1CC[C@H](CCNC(=O)C2CCC2)O[C@@H]1CO | inactive | inactive | inactive
O=C(C[C@@H]1CC[C@@H]2[C@H](COC[C@H](O)CN2S(=O)(=O)c2cccc(Cl)c2)O1)NCCCN1CCOCC1 | inactive | inactive | inactive
CCOC(=O)/C(=N/O)c1csc(N)n1 | inactive | inactive | inactive
Cc1ccc(S(=O)(=O)Nc2ccc3c(c2)CC(=O)N([C@@H](C)CO)C[C@@H](C)[C@@H](CN(C)S(C)(=O)=O)O3)cc1 | inactive | inactive | inactive
CC(C)NC(=O)N(C)C[C@@H]1OCCCC[C@H](C)Oc2ccc(NS(C)(=O)=O)cc2C(=O)N([C@H](C)CO)C[C@@H]1C | inactive | inactive | inactive
COc1ccc(NC(=O)Nc2ccc3c(c2)CC(=O)N([C@@H](C)CO)C[C@@H](C)[C@@H](CN(C)Cc2ccc(C(=O)Nc4ccccc4N)cc2)O3)cc1 | inactive | inactive | inactive
CC(C)(C)OC(=O)CC[C@@]12N=C(c3ccc(OCCCO)cc3)O[C@@H]1c1ccccc1CN(C(=O)c1ccccc1)C2=O | inactive | active | inactive
CC(=O)N(O)CCC[C@H]1NC(=O)CNC(=O)CNC(=O)CNC(=O)[C@@H](CCCN(O)C(C)=O)NC(=O)[C@@H](CCCN(O)C(C)=O)NC1=O | inactive | inactive | inactive
COc1cccc(S(=O)(=O)N(C)C[C@H]2Oc3ncc(C#CC(C)C)cc3C(=O)N([C@H](C)CO)C[C@@H]2C)c1 | inactive | inactive | inactive
COc1ccc(C#Cc2cnc3c(c2)C(=O)N([C@H](C)CO)C[C@H](C)[C@H](CN(C)S(=O)(=O)c2ccccc2)O3)cc1OC | inactive | inactive | inactive
C[C@H](CO)N1C[C@H](C)[C@@H](CN(C)Cc2ccc3c(c2)OCO3)Oc2ccc(NS(=O)(=O)c3cn(C)cn3)cc2CC1=O | inactive | inactive | inactive
COc1ccc([Si](C)(C)[C@H]2[C@H](CC(=O)N(CCO)Cc3ccccc3)O[C@@]3(C(=O)N(Cc4ccc(N5CCOC5=O)cc4)c4ccccc43)[C@@H]2C)cc1 | inactive | inactive | inactive
Cc1noc(C)c1NC(=O)Nc1ccc2c(c1)CC(=O)N([C@@H](C)CO)C[C@H](C)[C@H](CN(C)C(=O)Nc1cccc3ccccc13)O2 | inactive | inactive | inactive
COc1ccccc1CNC(=O)C[C@@H]1C[C@@H]2c3cc(NC(=O)C4CCOCC4)ccc3O[C@@H]2[C@H](CO)O1 | inactive | inactive | inactive
C[C@@H]1CN([C@H](C)CO)C(=O)Cc2cc(NS(=O)(=O)c3ccccc3)ccc2O[C@@H]1CN(C)S(=O)(=O)c1cn(C)cn1 | inactive | inactive | inactive
